Data: PubChem BioAssay AID1508623 (National Center for Advancing Translational Sciences (NCATS), 2021)
The whole screen tested about 48,000 compounds, of which about 450 (0.94%) were called active. Inconclusive means that the source gave no clear call. Such entries were picked first, then a sample of the others. The call rests on the fitted dose curve; in most records, active means well fitted inhibition curve with a large enough effect; inconclusive means small, poorly fitted or top-dose-only effect; inactive means no such curve, though single readings can be large or run the other way. A potency beside an inconclusive call is a rough fit, not a confirmed value.

Assay: Primary qHTS for Identification of Small Molecule Inhibitors of Huntingtin Promoter Activity; further: nearly all actives have a fitted effect of over 50% in size
Conditions: HEK293 HTT promoter firefly luciferase reporter (activity 0% = vehicle and -100% = no light), 24 h; series mostly up to 57.5 µM
How it was run: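 Luminescence was read after Dual-Glo reagent and a 10 min room-temperature incubation. Values were normalized to vehicle (0% activity) and zero RLU (-100% activity). Reporter HEK293 cells had been exposed to compounds (up to 57.5 uM final) for 24 h.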
Potency means the concentration at half of the fitted maximal effect; tags describe the fitted curve by direction and shape.

SMILES | Potency
COc1ccc(CCNC(=O)c2ccc3c(c2)CCN3S(=O)(=O)c2ccc(C)cc2)cc1OC | inconclusive: 22.4 µM [inhibitor, partial curve, poor fit]
COc1ccc(-c2cc(C(F)(F)F)nc(SCC(=O)N(C)Cc3ccccc3)n2)cc1 | inconclusive: 31.6 µM [inhibitor, partial curve, poor fit]
COc1cc(F)c(C(C)C)cc1-c1ccc(C(F)(F)F)cc1CN1C(=O)O[C@H](c2cc(C(F)(F)F)cc(C(F)(F)F)c2)[C@@H]1C | inactive
CC(C)(C)c1ccc(C(=O)Nc2nnc3n2CCS3)cc1 | inactive
Cc1cc2oc(C(=O)Nc3ccc(S(=O)(=O)N(C)c4ccccc4)cc3)cc(=O)c2cc1C | inactive
CC(=O)N1CCc2c(sc(NC(=O)CSc3ccc(F)cc3)c2-c2nc3ccccc3s2)C1 | inconclusive: 39.8 µM [inhibitor, single point]
Cc1ccc(Cn2c(CO)cnc2SCC(=O)Nc2cccc(F)c2)cc1 | inactive
CCOc1ccc(S(=O)(=O)N2CCC(n3c(C)nc4cccnc43)CC2)cc1 | inconclusive: 17.8 µM [inhibitor, partial curve, poor fit]
COC(=O)c1ccc2c(c1)N(Cc1cc(C)ccc1C)C(=O)c1ccccc1S2(=O)=O | inconclusive: 17.8 µM [inhibitor, partial curve]
Cc1cc(C)c(NC(=O)C2CCCN(C(=O)c3cnn(-c4ccccc4)c3-n3cccc3)C2)c(C)c1 (configuration not stated) | inconclusive: 22.4 µM [inhibitor, partial curve]
COc1ccc(NC(=O)CCc2c(C)nc3cc(-c4cccc(F)c4)nn3c2C)cc1Cl | active: 2.24 µM
CC(=O)N1CCCc2cc(S(=O)(=O)N3CCCC(C(=O)Nc4ccc(C)c(F)c4)C3)ccc21 (configuration not stated) | inconclusive: 17.8 µM [inhibitor, single point]
O=S(=O)(NCCc1csc(-c2ccc(F)cc2)n1)c1ccc(F)cc1F | inconclusive: 35.5 µM [inhibitor, partial curve, poor fit]
CCOC(=O)c1cc(-c2ccc(C)cc2)n(CCC(=O)NCc2ccccc2)c1C | inconclusive: 39.8 µM [inhibitor, single point]
CN1CCN(C(=O)c2cnn(-c3cccc(F)c3)c2C2CCN(C(=O)OC(C)(C)C)CC2)CC1 | inactive
COc1ccc(N2CCN(C(CNC(=O)c3ccc(C)cc3)c3ccc4c(c3)OCO4)CC2)cc1 (configuration not stated) | inconclusive: 22.4 µM [inhibitor, partial curve, poor fit]
Cc1ccccc1-c1nc(CS(=O)CC(=O)NCCc2ccc(Cl)cc2)c(C)o1 (configuration not stated) | inconclusive: 28.2 µM [inhibitor, single point]
CCOC(=O)c1cnc2ccc(OCC)cc2c1N1CCN(c2cccc(Cl)c2)CC1 | inconclusive: 31.6 µM [inhibitor, partial curve, poor fit]
O=C1CN(C(=O)C2CCCCC2)C(c2ccccc2)c2cc(F)ccc2N1 (configuration not stated) | inconclusive: 39.8 µM [inhibitor, partial curve, poor fit]

SMILES | Potency
COc1cccc(C2=NS(=O)(=O)N(C)C(C(=O)Nc3cccc(O)c3)=C2)c1 | inconclusive: 15.8 µM [inhibitor, partial curve, poor fit]
Cc1ccc(-c2nnc(SCC(=O)NCCC(C)C)nc2-c2ccc(C)cc2)cc1 | inconclusive: 39.8 µM [inhibitor, partial curve, poor fit]
COc1ccc(N2CCN(C(CNC(=O)C(=O)NCc3ccc(F)cc3)c3cccnc3)CC2)cc1 (configuration not stated) | inconclusive: 10 µM [inhibitor, partial curve]
N=C1SC(=Cc2ccc(-c3ccc4c(c3)C(=O)NC4=O)o2)C(=O)N1c1ccc(Br)cc1 | inactive
CCCCN1C(=O)C(O)(c2c(C)[nH]c3ccccc23)c2cc(Br)ccc21 (configuration not stated) | inconclusive: 35.5 µM [inhibitor, single point]
CCN1C(=O)c2ccccc2Sc2ccc(NC(=O)Nc3ccc(Br)c(C)c3)cc21 | inconclusive: 35.5 µM [inhibitor, partial curve, poor fit]
COc1ccc(-c2cc(NCc3ccc(C)cc3)n3cnnc3n2)cc1 | inconclusive: 22.4 µM [inhibitor, partial curve, poor fit]
COc1ccc(Nc2nc(N)nc(CSc3nc4ccccc4s3)n2)cc1 | inconclusive: 39.8 µM [inhibitor, partial curve, poor fit]
Oc1ccc(C2CNCCc3c2cc(O)c(O)c3Cl)cc1 (configuration not stated) | inactive
Cc1c(C(=O)OC2CCCCCC2)[nH]c2c1C(=O)CC(c1ccccc1Cl)C2 (configuration not stated) | inconclusive: 12.6 µM [inhibitor, partial curve]
CCN(CC)S(=O)(=O)c1ccc(C(=O)NC2CC(=O)N(c3ccc4c(c3)OCCO4)C2)cc1 (configuration not stated) | inactive
CCOC(=O)c1ccc(N2C(=O)c3[nH]nc(-c4ccccc4)c3C2c2cccs2)cc1 (configuration not stated) | active: 15.8 µM
O=C(CSc1nc2c(c(=O)[nH]1)CN(Cc1ccc(F)cc1)CC2)Nc1cccc(C(F)(F)F)c1 | inconclusive: 35.5 µM [inhibitor, partial curve]
CCOc1ccc(OCC)c(NC(=O)CN(c2ccc(C)cc2)S(=O)(=O)c2c(C)n[nH]c2C)c1 | inconclusive: 31.6 µM [inhibitor, single point]
COc1ccc(-c2csc3ncnc(Nc4ccc(OC)c(OC)c4)c23)cc1 | inconclusive: 28.2 µM [inhibitor, partial curve, poor fit]
Cc1cc(N2CCCCC2)nc2ccc(NC(=O)CCC(=O)N3CCN(c4cccc(Cl)c4)CC3)cc12 | inconclusive: 25.1 µM [inhibitor, partial curve, poor fit]
Cc1ccc(C)c(N2CCN(CCCNC(=O)Cn3c(-c4cccs4)cc4ccccc43)CC2)c1 | inconclusive: 31.6 µM [inhibitor, partial curve]
COCCCNC(=O)C1CCN(c2nnc(-n3cccc3CNc3ccc(C)cc3)s2)CC1 | inconclusive: 28.2 µM [inhibitor, partial curve, poor fit]
